From publication PMC5359592
Where a chain is given by its changes, count along the chain named. These are yes or no findings as the source states them, for the method shown. In cells and extracts the contact can be indirect. Some binding calls cover weakened binding; strength is not graded here. For part of these data: Sequences can lack the tags named with a protein. Blank lines part the entries; values can stand above or below the molecule they belong to.

Sequences of proteins named here, by UniProt entry; tags and fusion partners are left off.
UniProt Q15208: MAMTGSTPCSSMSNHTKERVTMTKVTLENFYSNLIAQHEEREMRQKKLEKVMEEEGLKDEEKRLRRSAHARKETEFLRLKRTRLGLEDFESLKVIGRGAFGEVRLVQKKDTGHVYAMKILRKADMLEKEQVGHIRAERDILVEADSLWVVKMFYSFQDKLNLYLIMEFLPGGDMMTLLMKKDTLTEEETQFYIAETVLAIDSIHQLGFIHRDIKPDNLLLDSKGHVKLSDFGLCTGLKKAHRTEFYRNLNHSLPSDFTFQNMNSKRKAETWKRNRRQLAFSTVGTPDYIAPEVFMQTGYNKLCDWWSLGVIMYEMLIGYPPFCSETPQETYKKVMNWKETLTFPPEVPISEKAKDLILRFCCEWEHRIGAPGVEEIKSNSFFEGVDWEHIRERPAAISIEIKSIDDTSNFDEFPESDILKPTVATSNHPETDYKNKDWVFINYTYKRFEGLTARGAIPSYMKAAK
UniProt Q91VJ4: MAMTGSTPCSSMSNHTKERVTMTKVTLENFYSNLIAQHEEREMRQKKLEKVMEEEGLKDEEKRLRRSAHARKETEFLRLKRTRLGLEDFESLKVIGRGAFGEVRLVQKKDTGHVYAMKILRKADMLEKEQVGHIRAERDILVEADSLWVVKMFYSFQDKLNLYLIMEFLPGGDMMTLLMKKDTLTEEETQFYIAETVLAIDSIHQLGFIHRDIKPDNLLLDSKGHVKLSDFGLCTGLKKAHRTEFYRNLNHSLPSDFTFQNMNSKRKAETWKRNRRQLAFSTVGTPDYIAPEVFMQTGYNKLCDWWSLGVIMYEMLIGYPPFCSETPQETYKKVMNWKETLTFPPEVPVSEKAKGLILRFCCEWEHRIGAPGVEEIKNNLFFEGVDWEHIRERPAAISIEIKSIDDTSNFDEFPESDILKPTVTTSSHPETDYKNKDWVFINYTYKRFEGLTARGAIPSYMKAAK

How the values were obtained:
[1] = biological target: T1, Rbm24, endogenous in HL-1 cells (mouse (endogenous in HL-1)) (UniProt D3Z4I3); assay: co-IP; anti-Rbm24 immunoprecipitation from HL-1 cells; western blot with anti-Stk38 antibody; both proteins endogenous
T1 sequence: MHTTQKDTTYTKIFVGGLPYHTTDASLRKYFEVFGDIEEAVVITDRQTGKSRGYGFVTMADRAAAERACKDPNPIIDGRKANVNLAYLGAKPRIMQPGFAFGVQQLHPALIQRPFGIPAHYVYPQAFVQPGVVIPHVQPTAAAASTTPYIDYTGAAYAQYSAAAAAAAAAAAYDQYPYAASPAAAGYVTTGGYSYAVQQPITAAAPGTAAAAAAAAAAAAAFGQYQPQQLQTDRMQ

Flag-Stk38 (full length) [2] = biological target: Flag-Stk38 (full length) (UniProt Q15208); assay: co-IP; lysates of HEK293 cells transfected with Flag-Stk38 and Myc-Rbm24 treated with RNase A, then immunoprecipitated with anti-Flag antibody; western blot
Flag-Stk38 (full length) [3] = biological target: Flag-Stk38 (full length) (UniProt Q15208); assay: co-IP; lysates of HEK293 cells transfected with Flag-Stk38 and Myc-Rbm24 (full length or fragments); immunoprecipitated with anti-Flag antibody; western blot

binding [1]: binds
Molecule: Stk38, endogenous in HL-1 cells (from UniProt Q91VJ4 1-465) (enzyme)

binding (Flag-Stk38 (full length) [2]): binds | binding (Flag-Stk38 (full length) [3]): binds
B1: Myc-Rbm24 (full length) (protein, UniProt Q9BX46 1-236)
chain: T1 sequence with D36E, T190A, S194G

Further lines, the molecule ahead of its results:

B2: Myc-1-138 fragment of Rbm24 (domain or fragment, UniProt Q9BX46 1-138)
chain: MHTTQKDTTYTKIFVGGLPYHTTDASLRKYFEVFGEIEEAVVITDRQTGKSRGYGFVTMADRAAAERACKDPNPIIDGRKANVNLAYLGAKPRIMQPGFAFGVQQLHPALIQRPFGIPAHYVYPQAFVQPGVVIPHVQ
binding (Flag-Stk38 (full length) [3]): no binding

B3: Myc-RRM of Rbm24 (domain or fragment, UniProt Q9BX46 11-88)
chain: TKIFVGGLPYHTTDASLRKYFEVFGEIEEAVVITDRQTGKSRGYGFVTMADRAAAERACKDPNPIIDGRKANVNLAYL
binding (Flag-Stk38 (full length) [3]): no binding

B4: Myc-1-188 fragment of Rbm24 (domain or fragment, UniProt Q9BX46 1-188)
chain: MHTTQKDTTYTKIFVGGLPYHTTDASLRKYFEVFGEIEEAVVITDRQTGKSRGYGFVTMADRAAAERACKDPNPIIDGRKANVNLAYLGAKPRIMQPGFAFGVQQLHPALIQRPFGIPAHYVYPQAFVQPGVVIPHVQPTAAAASTTPYIDYTGAAYAQYSAAAAAAAAAAAYDQYPYAASPAAAGYV
binding (Flag-Stk38 (full length) [3]): no binding
